Test results as given in PubChem BioAssay AID485360 (National Center for Advancing Translational Sciences (NCATS), 2010).
The whole screen tested about 230,000 compounds, of which about 1,500 (0.65%) were called active. This list was built around the results that the source calls inconclusive (neither active nor inactive); the mix of calls is not that of the screen. Calls follow the shape of the dose curve; as a rule, active = well fitted inhibition curve with a large enough effect; inconclusive = small, poorly fitted or top-dose-only effect; inactive = no such curve, though single readings can be large or run the other way. Potencies of inconclusive entries are doubtful fits and often do not repeat.

Target: Lethal(3)malignant brain tumor-like protein 1 (Homo sapiens) (UniProt Q9Y468)
Assay: qHTS Assay for the Inhibitors of L3MBTL1; also: nearly all actives have a fitted effect of over 60% in size
Details: AlphaScreen L3MBTL1–H3K9me1 peptide binding; activity, negative = inhibition: at 57.1 µM (top of the series)
In short: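 AlphaScreen assay: L3MBTL1 (50 nM final) was preincubated 30 min at room temperature with biotinylated H3(1-15)K9me1 peptide (75 nM final), then 30 min with library compounds; streptavidin donor and nickel chelate acceptor beads (10 ug/mL final) added, 30 min dark.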
% is scaled to controls: 0 for no effect and ±100 for the full control effect; potency is read from the fitted curve at half-maximal effect; tags tell the direction and shape of the fitted curve.

UniProt Q9Y468, sequence (Q9Y468 whole entry, looked up): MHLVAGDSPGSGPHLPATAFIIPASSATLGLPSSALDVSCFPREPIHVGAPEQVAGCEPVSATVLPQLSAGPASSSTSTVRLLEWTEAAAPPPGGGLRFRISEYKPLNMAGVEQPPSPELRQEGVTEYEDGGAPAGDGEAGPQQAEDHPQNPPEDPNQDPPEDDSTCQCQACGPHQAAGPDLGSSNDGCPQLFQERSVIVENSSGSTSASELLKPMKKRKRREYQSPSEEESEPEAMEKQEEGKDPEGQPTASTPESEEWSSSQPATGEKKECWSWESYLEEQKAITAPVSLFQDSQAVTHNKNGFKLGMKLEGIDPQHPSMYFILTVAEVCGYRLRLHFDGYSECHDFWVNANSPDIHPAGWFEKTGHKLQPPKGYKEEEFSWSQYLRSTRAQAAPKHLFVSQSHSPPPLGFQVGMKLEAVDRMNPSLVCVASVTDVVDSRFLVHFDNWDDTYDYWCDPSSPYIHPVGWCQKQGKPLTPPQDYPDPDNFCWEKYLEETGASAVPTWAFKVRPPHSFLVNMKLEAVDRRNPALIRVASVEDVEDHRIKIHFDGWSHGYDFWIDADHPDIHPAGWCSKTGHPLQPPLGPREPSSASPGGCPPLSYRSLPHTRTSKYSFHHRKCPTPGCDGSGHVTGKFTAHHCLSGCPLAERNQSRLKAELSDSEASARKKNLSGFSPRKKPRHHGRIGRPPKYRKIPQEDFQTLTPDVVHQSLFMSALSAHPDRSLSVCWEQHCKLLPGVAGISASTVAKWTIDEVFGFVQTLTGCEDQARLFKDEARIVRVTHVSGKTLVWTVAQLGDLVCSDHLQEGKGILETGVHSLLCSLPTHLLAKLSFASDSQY

Compound	activity, negative = inhibition	Potency
CC(C)(C)NC(=O)Cn1c(=O)n(CC(=O)NC(C)(C)C)c2ccccc21	inactive: 8.37%	–
COc1ccc(NC(=O)/C(C#N)=C\c2ccc(-c3cccc(C(=O)O)c3C)o2)cc1	–	inconclusive: 28.2 µM [inhibitor, single point]
NC(=O)c1ccc(Cn2c(C(=O)c3cc(Cl)c(N)c(Cl)c3)c3ccccc3[n+]2[O-])cc1	–	inconclusive: 14.1 µM [inhibitor, partial curve, poor fit]
O=C(Cn1cnc2c(nnn2Cc2ccc(F)cc2)c1=O)NCc1ccco1	–	inconclusive: 20 µM [inhibitor, partial curve]
Cc1ccc2c(CSc3nncn3C)cc(=O)oc2c1C	inactive: -0.688%	–
O=C(COC(=O)c1ccc(NS(=O)(=O)c2cccs2)cc1)Nc1nc2c(F)c(F)c(F)cc2s1	–	inconclusive: 35.5 µM [inhibitor, single point]
CN(Cc1cccc(Cl)c1Cl)C(=O)c1ccc(NC(=O)CC#N)cc1	–	inconclusive: 5.01 µM [inhibitor, single point]
CCn1cnc2cc(NCc3nc4ccccc4n3Cc3ccccc3)ccc21	–	inconclusive: 17.8 µM [inhibitor, partial curve]
O=C(NNC(=O)c1ccccc1Cl)c1cccs1	–	inconclusive: 5.01 µM [inhibitor, single point]
COc1ccc(N2CCN(C(CNS(=O)(=O)c3ccc(C)cc3)c3ccccc3)CC2)cc1 (centres undefined)	–	inconclusive: 25.1 µM [inhibitor, single point]
Cc1nc(N2CCN(Cc3ccc(Cl)cc3)CC2)c2oc3ccccc3c2n1	inactive: -23.6%	–
CN(C)c1ccc(/C=C(\C#N)c2ccccc2)cc1	–	inconclusive: 6.31 µM [inhibitor, partial curve]
COc1cc(Sc2ccc(C)cc2)c(OC)cc1N	–	inconclusive: 20 µM [inhibitor, partial curve]
Cc1ccc(NC2=NCC(=O)N2Cc2ccc3c(c2)OCO3)c(C)c1	inactive: 6.96%	–
O=C(/C=C/c1ccc(Cl)cc1)N1CCN(c2ccc(Cl)cc2[N+](=O)[O-])CC1	–	inconclusive: 28.2 µM [inhibitor, partial curve]
CCOc1ccc(OCCC(=O)OCC(=O)NC2CC2)cc1	–	inconclusive: 35.5 µM [inhibitor, single point]
COC(=O)CSCc1nc2ccccc2[nH]c1=O	inactive: 4.29%	–
Cc1nc(N2CCC(C)CC2)c2oc3ccccc3c2n1	inactive: 7.09%	–
COCCCN(C(=S)Nc1cc(Cl)cc(Cl)c1)C(C)c1ccncc1 (centres undefined)	inactive: -2.38%	–
C=CCn1c(CC#N)nnc1N1CCOCC1	inactive: 20.6%	–
CCOc1ccc(C(=O)OC(C)CN2CCCCC2)cc1 (centres undefined)	–	inconclusive: 4.47 µM [inhibitor, single point]
Cc1cc(C2N=C(N)Nc3nc4ccccc4n32)c(C)n1-c1ccccc1Cl (centres undefined)	–	inconclusive: 35.5 µM [inhibitor, partial curve]

Compound	activity, negative = inhibition	Potency
O=c1c(O)cccc2cc(O)c(O)c(O)c12	–	active: 0.562 µM
COc1ccc(C2CC(c3ccc(Br)cc3)=NN2C(=O)CN2CCCC2)cc1 (centres undefined)	–	inconclusive: 35.5 µM [inhibitor, single point]
COCCNC(=O)Nc1ccc2nc(-c3ccco3)c(-c3ccco3)nc2c1	–	active: 2.82 µM
C=CCn1c2ccccc2c2nnc(SCC(=O)OCN3C(=O)c4ccccc4C3=O)nc21	–	inconclusive: 5.01 µM [inhibitor, single point]
Cc1n[nH]c(=S)n(NC(=O)CC(=O)Nn2c(=S)[nH]nc(C)c2=O)c1=O	–	inconclusive: 39.8 µM [inhibitor, single point]
COc1cccc(CNC(=O)c2cc(S(=O)(=O)N3CCCCC3)c[nH]2)c1	–	inconclusive: 0.891 µM [inhibitor, single point]
CC1CCCCC12NC(=O)N(CC(=O)Nc1cccc(S(=O)(=O)N3CCCCC3)c1)C2=O (centres undefined)	inactive: -5.05%	–
O=C(OCC#CCSc1nnc(-c2cccc3ccccc23)o1)c1ccco1	–	inconclusive: 25.1 µM [inhibitor, single point]
CCOc1ccccc1-n1cnc(C#N)c1N	inactive: 4.5% [at 11.4 µM]	–
CC(=O)NC(c1cccs1)c1cc(Br)c2cccnc2c1O (centres undefined)	–	inconclusive: 25.1 µM [inhibitor, partial curve, poor fit]
COc1ccc(NC(=S)NNc2ccc(S(=O)(=O)Nc3ccccc3C(=O)O)cc2[N+](=O)[O-])cc1	–	inconclusive: 31.6 µM [inhibitor, single point]
Nc1nc2ccc(S(=O)(=O)N3CCCCC3)cc2s1	inactive: 7.51%	–
CCOC(=O)c1ccc(-n2ccnc2)c(NC(=O)c2cccc(Br)c2)c1	–	inconclusive: 0.794 µM [inhibitor, single point]
COc1ccc(NC(=O)/C(C#N)=C\c2ccc(-c3cc(C(=O)O)ccc3C)o2)cc1	inconclusive: -45.1% [inhibitor]	–
COc1ccccc1-c1sc2cc3c(cc2c1C#CC1(O)CCCCC1)OCO3	inactive: 1.07%	–
Cc1ccc(S(=O)(=O)N2CCN(C(=O)c3ccc4nc[nH]c4c3)CC2)cc1	–	inconclusive: 28.2 µM [inhibitor, partial curve]
O=C(CCCN1C(=O)/C(=C\c2ccco2)SC1=S)Nc1cccc2ccccc12	–	inconclusive: 31.6 µM [inhibitor, single point]
CC1=C(C#N)C(=O)NC(=O)/C1=C\c1ccc(-c2cc(C)c(C)cc2[N+](=O)[O-])o1	–	inconclusive: 25.1 µM [inhibitor, single point]
Cc1cc(=O)n2nc(N3CCCC(C(=O)NCc4ccccc4C)C3)sc2n1 (centres undefined)	–	inconclusive: 39.8 µM [inhibitor, single point]
COc1cc(N/N=C(\C)c2ccc(N)cc2)nc(-c2ccccc2)n1	–	inconclusive: 17.8 µM [inhibitor, single point]
CCOc1ccc(NC(=O)CSc2ccc(-c3ccccn3)nn2)cc1	–	inconclusive: 2.82 µM [inhibitor, full curve]
CCN1CCN(c2ccc(NC(=O)c3ccc4c(c3)[nH]c(=O)n4Cc3ccc(F)cc3)cc2)CC1	–	inconclusive: 39.8 µM [inhibitor, single point]
